Laboratory results as given in PubChem BioAssay AID504706 (National Center for Advancing Translational Sciences (NCATS), 2011).
The campaign covered roughly 320,000 compounds. About 200 (0.062%) were called active. Inconclusive results, whose numbers are uncertain, are shown with a selection of clear calls. Calls come from the whole dose curve; as a rule, active = well fitted activation curve with a large enough effect; inconclusive = small, poorly fitted or top-dose-only effect; inactive = no such curve, though single readings can be large or run the other way. Potencies of inconclusive entries are left out as doubtful fits.

Assay: qHTS assay for re-activators of p53 using a Luc reporter; note: nearly all actives have a fitted effect of over 45% in size; for activity change, positive = activation: % of control where 0% means no effect
Details: H1299 p53-A138V BP100-luciferase reporter, luminescence, 24 h; series mostly up to 92.2 µM; activity change, positive = activation: at the top concentration
Method in brief: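 H1299 (p53-null), stable ts p53-A138V + BP100-Luc; 1000 cells/well, Opti-MEM/10% FBS; cpd 4 pt, 1:5; 24 h, 37 deg C, 5% CO2; detection reagent 10 min RT; luminescence.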
Potency is the fitted concentration of half-maximal effect; tags give direction and shape of the fitted curve.

Structure (SMILES)	activity change, positive = activation	Potency
O=C(Nc1cccc(C(=O)O)c1)Nc1cccc2ccccc12	inactive: -1.8%	
Cc1cc(C)c(C#N)c(SCC2COc3ccccc3O2)n1 (stereo not drawn)		inconclusive [activator, single point]
CCc1c(C)nc(SCc2ccccn2)[nH]c1=O		inconclusive [activator, single point]
CN(C)c1oc(/C=C/c2ccccc2)nc1C#N		inconclusive [activator, full curve, poor fit]
Cc1ccc2c(c1)Cc1nc3ccccc3nc1-2		inconclusive [activator, full curve, poor fit]
Cc1ccccc1OCC(=O)NC1=NCCS1		inconclusive [activator, partial curve, poor fit]
Cc1cc(C)cc(-c2nc(-c3ccncc3)no2)c1		inconclusive [activator, single point]
CCOC(=O)c1oc2ccc(CNC(C)(C)C)c(Cl)c2c1C		inconclusive [activator, partial curve, poor fit]
CCCN1Cc2cccc(C(=O)Nc3ccc(CN4CCCC4)cc3)c2C1=O	inactive: 9.17%	
Cc1ccc(N(CC(=O)NCc2ccccc2)C(=O)c2csnn2)c(C)c1	inactive: -4.16%	
OC(c1ccccn1)(c1ccccn1)c1ccccn1		inconclusive [activator, partial curve, poor fit]
Brc1c(CSc2nnc(-c3ccco3)o2)nc2ccccn12		inconclusive [activator, full curve, poor fit]
CC1CCN(C(=O)c2cc3c(ccc4ccccc43)o2)CC1		inconclusive [activator, full curve, poor fit]
O=C(CCC(=O)OCC(=O)c1ccc(-c2ccccc2)cc1)Nc1cccc2cccnc12	inactive: 9.96%	
Cc1ccc2c(CC(=O)N3CCc4ccccc43)coc2c1	inactive: 24.1%	
Cc1cc(C(=O)CN2CCCC(C)C2)c(C)n1-c1ccc(F)cc1 (stereo not drawn)		inconclusive [activator, partial curve, poor fit]
O=C(CCn1cccc1)Nc1ccccc1F		inconclusive [activator, single point]
CCN(CC)CCCNC(=O)C1CCN(C(=O)c2oc3cc4sc(N(C)C)nc4cc3c2C)CC1		inconclusive [activator, single point]
Clc1ccc(-c2noc(CN3CCCC3)n2)cc1		inconclusive [activator, full curve, poor fit]
Cc1cc(O)c(NC(=O)c2ccc(Br)o2)cc1C		inconclusive [activator, partial curve, poor fit]
Cc1nnc(SCC(=O)N2CCOCC2)c2ccccc12		inconclusive [activator, partial curve, poor fit]
O=C(Cc1ccccc1F)Nc1nc(-c2cccs2)cs1		inconclusive [activator, partial curve, poor fit]
COc1ccc(N2CCN(CCNC(=O)CCCn3c(=O)[nH]c4cc(Cl)ccc4c3=O)CC2)cc1	inactive: -4.1%	
O=C(OCc1c(-c2ccccc2)ncc2ccccc12)c1ccc(Br)cc1	inactive: 4.92%	
Cc1ccc(Nc2nc3ccccc3s2)cc1		inconclusive [activator, partial curve, poor fit]

Structure (SMILES)	activity change, positive = activation	Potency
CCCCn1c(N)c(N(CCOC)C(=O)CSc2n[nH]c(-c3ccc(C)cc3)n2)c(=O)[nH]c1=O	inactive: -3.37%	
CCCCNC(=O)N1CCN(C/C=C/c2ccccc2)CC1		inconclusive [activator, single point]
Cc1cc(C)c2c(n1)SCC(=O)N2CC(=O)Nc1ccc(C)c(C)c1	inactive: 10.6%	
CC(=O)Nc1ccc(NC(=O)c2cccc(-c3cc4ccccc4oc3=O)c2)cc1		inconclusive [activator, full curve, poor fit]
COC(=O)c1c(-c2ccc(SC)cc2)sc2ccccc12		inconclusive [activator, partial curve, poor fit]
O=C(Nc1ccccc1)N(CCCN1CCOCC1)Cc1cc2cc3c(cc2[nH]c1=O)OCCO3	inactive: 1.45%	
Fc1ccc(N2CCN(c3cnc4ccccc4n3)CC2)cc1		inconclusive [activator, full curve, poor fit]
CS(=O)(=O)N(CC(=O)N1CCCCCC1)c1cccc(F)c1		inconclusive [activator, single point]
Cc1ccc(C(=O)OC(C)C(=O)NC(C)CCc2ccccc2)o1 (stereo not drawn)		inconclusive [activator, single point]
Cc1cc(=O)cc(C)n1-c1ccccc1N1CCOCC1	inactive: -8.02%	
O=C(O)CCC(=O)N1CCN(S(=O)(=O)c2ccc3ccccc3c2)CC1	inactive: 5.98%	
N#Cc1c(NC(=O)c2nc3ncccn3n2)sc2c1CCCCC2		inconclusive [activator, partial curve, poor fit]
CN(C)S(=O)(=O)c1ccc(NC(=O)c2cc(-c3cccs3)nc3ccccc23)cc1	inactive: -1.82%	
CCC(C(=O)OCC(=O)Nc1ccc(F)cc1)c1ccccc1 (stereo not drawn)	inactive: 4.02%	
COc1cccc(/C=C/C(=O)OCC(=O)Nc2cccc(S(=O)(=O)N3CCCCC3)c2)c1OC	inactive: -0.357%	
O=C(Cc1ccc(F)cc1)N/N=C/c1ccccn1	inactive: -2.9%	
COc1ccc(/C=C/c2nc3ccccc3n2Cc2ccccc2OC)cc1		inconclusive [activator, partial curve, poor fit]
O=C(/C=C/c1cccs1)NNC(=O)c1ccccc1		inconclusive [activator, partial curve, poor fit]
O=C(Nc1ccc(S(=O)(=O)NCCc2ccccc2)cc1)c1ccco1	inactive: 7.21%	
Cc1ccc(-c2ccc(CCC(=O)O)n2-c2cccc(C(=O)O)c2)cc1		inconclusive [activator, full curve]
COc1ccccc1C(=O)NCC(=O)Nc1ccc2c(c1)CCC2		inconclusive [activator, partial curve, poor fit]
C/C(=N\NC(=O)c1ccccc1O)c1ccc(NC(=O)Cc2ccccc2)cc1		inconclusive [activator, single point]
CCCCc1ccc(NC(=S)N2CCCC(CO)C2)cc1 (stereo not drawn)		inconclusive [activator, full curve, poor fit]
O=C(N/N=C/c1ccccc1OCc1ccccc1)c1cccnc1		inconclusive [activator, single point]
CCCn1nc(C(=O)NNC(=O)CSC(C)C(=O)Nc2cc(C)on2)c2ccccc2c1=O (stereo not drawn)	inactive: 2.68%	

Structure (SMILES)	activity change, positive = activation	Potency
COc1ccc2oc(C(=O)OCC(=O)N3CCCCC3C)c(C)c2c1 (stereo not drawn)		inconclusive [activator, partial curve, poor fit]
CCN(CC)c1ccc(/C=N/Nc2ccc(C)cc2)c(O)c1		inconclusive [activator, full curve, poor fit]
COc1ccc(C)cc1S(=O)(=O)N1c2ccc(C)cc2C2CN(C)CCC21 (stereo not drawn)	inactive: -10.1%	
CCCCC(=O)Nc1cccc(-c2csc(-c3ccccc3)n2)c1		inconclusive [activator, partial curve, poor fit]
COc1ccccc1-c1n[nH]c(=S)n1-c1ccccc1		inconclusive [activator, single point]
NNC(=O)c1cn2ccccc2n1	inactive: 0.564%	
CCOc1ccccc1-n1c(N)c(C(N)=O)sc1=S		inconclusive [activator, single point]
CN(C)c1ccc(CNc2ncc(Br)cc2Br)cc1	inactive: 23.5%	
Cc1cc(C)n2nc3nc(N4CCCCC4)nc(-c4ccco4)c3c2n1	inactive: 1.54%	
CN(C)c1ccc(/C=N/Nc2nncc3ccccc23)cc1		inconclusive [activator, single point]
O=C(N/N=C/c1ccc(Cl)cc1Cl)c1cccc(F)c1		inconclusive [activator, partial curve, poor fit]
N#C/C(=N/Nc1ccccc1[N+](=O)[O-])C(N)=S	inactive: 10.5%	
Cc1ccc(O)c(C2=NOC(O)(C(F)(F)F)C2)c1 (stereo not drawn)		inconclusive [activator, partial curve]
CCC1C(=O)CC(c2ccco2)NC1c1ccco1 (stereo not drawn)	inactive: 9.04%	
COC(=O)c1cnn(-c2ccc(F)cc2F)c1/C=N/NC(N)=S	inactive: 0.244%	
Cc1nn(C)c(Cl)c1S(=O)(=O)N1CCC(CO)(CCc2ccccc2)CC1	inactive: 0.0042%	
O=C(Nc1cc2c(cc1Br)OCCO2)c1ccco1		inconclusive [activator, full curve, poor fit]
O=C(N=C1N=C2C=CC(Br)=CN2Cc2ccccc21)c1ccc([N+](=O)[O-])cc1[N+](=O)[O-]		inconclusive [activator, partial curve, poor fit]
c1ccc2nc(-c3nc4ccccc4o3)ccc2c1	inactive: 8.36%	
CCOC(=O)c1c(C)nc(C)c(C(=O)OCC)c1-c1ccccc1		inconclusive [activator, partial curve, poor fit]
CN(Cc1ccco1)C(=O)c1c[nH]c2ccc(S(=O)(=O)Nc3ccc4c(c3)OCCO4)cc2c1=O		inconclusive [activator, partial curve, poor fit]
Cc1c(C(=O)NCCSCc2cccc(C(F)(F)F)c2)cnn1-c1ccc(Cl)cc1	inactive: 2.21%	
CC(O)CNC(=O)C1CCN(Cc2ccc(OCc3ccccc3)cc2)CC1 (stereo not drawn)		inconclusive [activator, partial curve, poor fit]
